The target in test [1] is GST-fused full-length Sam68 (UniProt Q07666). The experiment in a line: pull-down; GST pulldown: 1 μg of GST/Ni2+ affinity-purified recombinant protein applied to glutathione Sepharose 4B, 1 h at 4°C, washed, eluted, immunoblot; both purified. For orientation: A western blot detects proteins with antibodies after separation by electrophoresis.
Test [2] addresses Src-associated substrate during mitosis of 68 kDa (Sam68), endogenous in mouse embryonic fibroblasts (mouse (endogenous in MEFs)) (UniProt Q60749). The test is described as follows: co-IP; endogenous proteins; WT (and Sam68 KO control) MEFs γ-irradiated at 10 Gy, whole cell lysates at time points post irradiation, IP with Sam68 antibody and protein G-agarose, immunoblot; lysis buffer 50 mM Tris-HCl pH 8.0, 150 mM NaCl, 1% NP-40, 0.5% sodium deoxycholate, 4°C; also with PJ-34 (20 μM, 1 h) pretreatment and with ethidium bromide (50 μg/ml) in the lysis buffer.

Sequences of proteins named here, by UniProt entry; tags and fusion partners are left off. A change or cut given only in a name is not applied to a line headed by its entry. A line that says so, or that is headed by a name, gives the form on record, which may keep a tag or linker. Residues count along the entry.
UniProt Q07666: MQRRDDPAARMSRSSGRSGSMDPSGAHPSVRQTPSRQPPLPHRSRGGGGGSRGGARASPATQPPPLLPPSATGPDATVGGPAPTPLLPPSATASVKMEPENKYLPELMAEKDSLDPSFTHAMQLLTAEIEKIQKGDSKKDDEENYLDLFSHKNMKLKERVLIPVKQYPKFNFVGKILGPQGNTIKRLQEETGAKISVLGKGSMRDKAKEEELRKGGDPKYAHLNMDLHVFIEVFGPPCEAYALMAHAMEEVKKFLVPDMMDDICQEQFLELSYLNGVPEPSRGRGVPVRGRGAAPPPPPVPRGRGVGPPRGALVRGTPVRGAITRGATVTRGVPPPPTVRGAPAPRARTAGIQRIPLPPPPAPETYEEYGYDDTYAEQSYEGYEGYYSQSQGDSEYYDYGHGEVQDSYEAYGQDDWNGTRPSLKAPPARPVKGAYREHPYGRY
GFP-Sam68 (ΔC), lacks residues 347–443: residues 1-346 of Q07666
GFP-Sam68 (ΔKH), lacks residues 165–224 (Q07666, form named): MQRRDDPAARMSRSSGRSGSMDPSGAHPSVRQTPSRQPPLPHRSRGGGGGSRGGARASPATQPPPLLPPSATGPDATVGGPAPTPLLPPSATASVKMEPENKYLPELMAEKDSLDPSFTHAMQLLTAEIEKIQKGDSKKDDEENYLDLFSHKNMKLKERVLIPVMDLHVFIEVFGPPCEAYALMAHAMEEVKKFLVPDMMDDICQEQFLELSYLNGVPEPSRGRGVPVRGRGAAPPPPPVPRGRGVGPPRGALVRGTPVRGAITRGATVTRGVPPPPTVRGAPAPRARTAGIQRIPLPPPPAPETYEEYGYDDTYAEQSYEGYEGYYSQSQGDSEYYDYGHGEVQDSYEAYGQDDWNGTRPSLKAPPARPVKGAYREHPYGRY
UniProt Q60749: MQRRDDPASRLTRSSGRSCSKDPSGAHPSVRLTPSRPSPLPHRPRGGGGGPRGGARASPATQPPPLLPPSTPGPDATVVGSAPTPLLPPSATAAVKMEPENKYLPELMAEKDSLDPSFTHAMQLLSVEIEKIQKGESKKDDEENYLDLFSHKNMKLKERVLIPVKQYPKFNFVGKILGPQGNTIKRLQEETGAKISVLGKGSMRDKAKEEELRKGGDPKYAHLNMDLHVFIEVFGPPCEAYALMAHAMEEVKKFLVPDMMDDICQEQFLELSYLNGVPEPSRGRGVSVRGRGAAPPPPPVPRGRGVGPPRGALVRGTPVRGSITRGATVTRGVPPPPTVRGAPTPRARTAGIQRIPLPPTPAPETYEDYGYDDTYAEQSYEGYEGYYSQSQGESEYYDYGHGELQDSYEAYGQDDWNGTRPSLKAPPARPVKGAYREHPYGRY
UniProt P11103: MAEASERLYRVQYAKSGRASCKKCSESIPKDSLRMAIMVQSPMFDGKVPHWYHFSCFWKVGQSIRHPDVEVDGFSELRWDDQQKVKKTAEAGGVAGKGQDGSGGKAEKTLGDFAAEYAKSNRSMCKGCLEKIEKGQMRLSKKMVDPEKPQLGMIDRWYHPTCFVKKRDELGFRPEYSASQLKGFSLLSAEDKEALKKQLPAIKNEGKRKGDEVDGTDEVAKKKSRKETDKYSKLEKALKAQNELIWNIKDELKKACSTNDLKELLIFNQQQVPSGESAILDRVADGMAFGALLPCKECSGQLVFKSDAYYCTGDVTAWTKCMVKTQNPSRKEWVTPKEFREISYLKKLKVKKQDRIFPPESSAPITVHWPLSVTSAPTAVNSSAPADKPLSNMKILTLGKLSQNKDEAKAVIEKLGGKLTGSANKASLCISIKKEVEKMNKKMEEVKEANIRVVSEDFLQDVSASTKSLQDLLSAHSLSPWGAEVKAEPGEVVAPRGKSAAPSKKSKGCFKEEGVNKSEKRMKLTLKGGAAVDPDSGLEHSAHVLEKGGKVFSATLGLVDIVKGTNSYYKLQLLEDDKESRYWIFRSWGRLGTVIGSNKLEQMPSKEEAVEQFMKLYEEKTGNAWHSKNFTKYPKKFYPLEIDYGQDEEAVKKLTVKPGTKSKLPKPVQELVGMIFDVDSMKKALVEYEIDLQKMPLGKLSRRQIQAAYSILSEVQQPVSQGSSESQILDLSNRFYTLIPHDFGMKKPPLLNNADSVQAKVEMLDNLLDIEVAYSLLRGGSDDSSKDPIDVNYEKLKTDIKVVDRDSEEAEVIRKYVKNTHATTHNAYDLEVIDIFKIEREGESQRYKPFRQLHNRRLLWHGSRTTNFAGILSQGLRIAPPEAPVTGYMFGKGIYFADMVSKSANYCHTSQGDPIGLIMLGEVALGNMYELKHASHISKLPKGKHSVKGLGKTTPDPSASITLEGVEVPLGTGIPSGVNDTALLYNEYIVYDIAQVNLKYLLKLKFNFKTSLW
UniProt P09874: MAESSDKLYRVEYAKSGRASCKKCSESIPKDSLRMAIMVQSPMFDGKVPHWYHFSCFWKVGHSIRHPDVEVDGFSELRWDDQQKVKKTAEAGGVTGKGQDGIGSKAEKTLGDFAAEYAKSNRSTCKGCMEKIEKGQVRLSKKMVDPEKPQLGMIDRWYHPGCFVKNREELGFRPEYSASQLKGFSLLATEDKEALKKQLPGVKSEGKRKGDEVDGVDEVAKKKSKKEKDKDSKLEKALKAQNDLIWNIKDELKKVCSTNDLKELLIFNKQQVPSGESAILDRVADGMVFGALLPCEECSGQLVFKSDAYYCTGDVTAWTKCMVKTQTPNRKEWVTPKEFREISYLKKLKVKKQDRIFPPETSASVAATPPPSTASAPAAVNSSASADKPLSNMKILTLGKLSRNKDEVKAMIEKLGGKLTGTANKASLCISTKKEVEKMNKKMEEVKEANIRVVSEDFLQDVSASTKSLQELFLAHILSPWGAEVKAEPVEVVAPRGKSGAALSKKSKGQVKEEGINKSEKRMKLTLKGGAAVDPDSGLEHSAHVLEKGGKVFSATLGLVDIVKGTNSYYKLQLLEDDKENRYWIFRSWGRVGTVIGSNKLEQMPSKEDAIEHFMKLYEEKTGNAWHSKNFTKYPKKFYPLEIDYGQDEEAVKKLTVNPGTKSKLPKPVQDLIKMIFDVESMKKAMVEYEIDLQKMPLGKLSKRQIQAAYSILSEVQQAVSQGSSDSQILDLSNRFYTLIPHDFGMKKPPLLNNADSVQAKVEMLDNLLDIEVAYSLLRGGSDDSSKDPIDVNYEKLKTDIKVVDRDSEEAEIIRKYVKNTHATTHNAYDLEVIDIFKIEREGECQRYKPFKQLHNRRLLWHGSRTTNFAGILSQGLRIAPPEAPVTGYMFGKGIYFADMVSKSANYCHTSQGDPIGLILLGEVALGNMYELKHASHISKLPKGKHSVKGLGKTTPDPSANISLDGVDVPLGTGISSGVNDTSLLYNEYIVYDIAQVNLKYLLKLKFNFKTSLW
UniProt O88554: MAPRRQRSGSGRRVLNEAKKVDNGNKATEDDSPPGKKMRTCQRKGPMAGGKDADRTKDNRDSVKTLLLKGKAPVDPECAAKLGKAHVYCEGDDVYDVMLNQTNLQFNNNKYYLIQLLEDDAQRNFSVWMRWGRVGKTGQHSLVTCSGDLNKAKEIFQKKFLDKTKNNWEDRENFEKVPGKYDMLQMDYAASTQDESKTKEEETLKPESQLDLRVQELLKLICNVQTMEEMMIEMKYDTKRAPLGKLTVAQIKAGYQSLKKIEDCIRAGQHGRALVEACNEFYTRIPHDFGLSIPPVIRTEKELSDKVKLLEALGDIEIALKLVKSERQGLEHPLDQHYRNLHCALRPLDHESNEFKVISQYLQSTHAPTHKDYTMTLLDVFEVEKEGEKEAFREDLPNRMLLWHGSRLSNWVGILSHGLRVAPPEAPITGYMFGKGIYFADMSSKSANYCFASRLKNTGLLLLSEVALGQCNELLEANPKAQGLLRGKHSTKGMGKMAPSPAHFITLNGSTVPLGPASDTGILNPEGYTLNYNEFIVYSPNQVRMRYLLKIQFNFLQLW

The target in test [3] is poly(ADP-ribose) polymerase 1 (PARP1), endogenous in mouse embryonic fibroblasts (mouse (endogenous in MEFs)) (UniProt P11103). The test is described as follows: co-IP; endogenous proteins; WT MEFs γ-irradiated at 10 Gy, whole cell lysates at time points post irradiation, IP with PARP1 or isotype control antibody, immunoblot.
The target in test [4] is GFP-tagged full-length Sam68 (residues 1–443) (UniProt Q07666). The test is described as follows: co-IP; whole cell lysates of HEK293T cells expressing GFP or GFP-Sam68 fusion proteins, IP with GFP antibody, immunoblot for endogenous PARP1.
Test [5] addresses GFP-Sam68 (ΔKH), lacks residues 165–224 (UniProt Q07666). The description is as above.
In test [6] the target is GFP-Sam68 (ΔC), lacks residues 347–443 (UniProt Q07666). Described as above.

These are yes or no findings as the source states them, for the method shown. For some assays here: Binding seen in cells or lysates may run through a third protein. Some entries that bind do so weakly or less than the wild type.

For the molecule “His-PARP1 recombinant protein (from UniProt P09874 1-1014) (enzyme)”, in test [1], the binding result is on record as “binds”.

As to “ataxia telangiectasia mutated (ATM), endogenous in mouse embryonic fibroblasts (from UniProt Q62388 1-3066) (enzyme)”, the binding entry in test [2] is given as “binds”. On the same count and under the same terms, in the case of “PARP2, endogenous in mouse embryonic fibroblasts (from UniProt O88554 1-559) (enzyme)” it was “no binding”.

As to “Src-associated substrate during mitosis of 68 kDa (Sam68), endogenous in mouse embryonic fibroblasts (from UniProt Q60749 1-443)”, the binding result in test [3] is “binds”. In the case of “poly(ADP-ribose) polymerase 1 (PARP1), endogenous in mouse embryonic fibroblasts (from UniProt P11103 1-1013) (enzyme)”, the binding entry in test [2] is given as “binds”. Turning to “endogenous PARP1 of HEK293T cells (from UniProt P09874 1-1014) (enzyme)”, the binding result in test [4], in test [5] and in test [6] was “binds” each time.

B1: PARP3, endogenous in mouse embryonic fibroblasts (enzyme, UniProt Q3ULW8 1-533)
chain: MAPKRKASVQTEGSKKRRQGTEEEDSFRSTAEALRAAPADNRVIRVDPSCPFSRNPGIQVHEDYDCTLNQTNIGNNNNKFYIIQLLEEGSRFFCWNRWGRVGEVGQSKMNHFTCLEDAKKDFKKKFWEKTKNKWEERDRFVAQPNKYTLIEVQGEAESQEAVVKALSPQVYSGPVRTVVKPCSLDPATQNLITNIFSKEMFKNAMTLMNLDVKKMPLGKLTKQQIARGFEALEALEEAMKNPTGDGQSLEELSSCFYTVIPHNFGRSRPPPINSPDVLQAKKDMLLVLADIELAQTLQAAPGEEEEKVEEVPHPLDRDYQLLRCQLQLLDSGESEYKAIQTYLKQTGNSYRCPDLRHVWKVNREGEGDRFQAHSKLGNRRLLWHGTNVAVVAAILTSGLRIMPHSGGRVGKGIYFASENSKSAGYVTTMHCGGHQVGYMFLGEVALGKEHHITIDDPSLKSPPSGFDSVIARGQTEPDPAQDIELELDGQPVVVPQGPPVQCPSFKSSSFSQSEYLIYKESQCRLRYLLEIHL
Regarding B1, the binding entry in test [2] was “no binding”.

B2: PARP5a, endogenous in mouse embryonic fibroblasts (enzyme, UniProt Q6PFX9 1-1320)
chain: MAASRRSQHHHHHHQQQLQPAPGASAPPPPPPPPLSPGLAPGPTPASPTAGGLAPFASPRHGLALPEGDGSRDPPDRPRSPDPVDGAVCTVAAPAAVPAASAAVGVAPTPAGGGGGGGNNSASSASSPTSSSSSSPSSPGSSLAESPEAAGVGSTATLGAGAAGLGPGVPAVSGALRELLEACRNGDVSRVKRLVDAANVNAKDMAGRKSSPLHFAAGFGRKDVVEHLLQMGANVHARDDGGLIPLHNACSFGHAEVVSLLLCQGADPNARDNWNYTPLHEAAIKGKIDVCIVLLQHGADPNIRNTDGKSALDLADPSAKAVLTGEYKKDELLEAARSGNEEKLMALLTPLNVNCHASDGRKSTPLHLAAGYNRVRIVQLLLQHGADVHAKDKGGLVPLHNACSYGHYEVTELLLKHGACVNAMDLWQFTPLHEAASKNRVEVCSLLLSHGADPTLVNCHGKSAVDMAPTPELRERLTYEFKGHSLLQAAREADLAKVKKTLALEIINFKQPQSHETALHCAVASLHPKRKQVAELLLRKGANVNEKNKDFMTPLHVAAERAHNDVMEVLHKHGAKMNALDSLGQTALHRAALAGHLQTCRLLLSYGSDPSIISLQGFTAAQMGNEAVQQILSESTPMRTSDVDYRLLEASKAGDLETVKQLCSPQNVNCRDLEGRHSTPLHFAAGYNRVSVVEYLLHHGADVHAKDKGGLVPLHNACSYGHYEVAELLVRHGASVNVADLWKFTPLHEAAAKGKYEICKLLLKHGADPTKKNRDGNTPLDLVKEGDTDIQDLLRGDAALLDAAKKGCLARVQKLCTPENINCRDTQGRNSTPLHLAAGYNNLEVAEYLLEHGADVNAQDKGGLIPLHNAASYGHVDIAALLIKYNTCVNATDKWAFTPLHEAAQKGRTQLCALLLAHGADPTMKNQEGQTPLDLATADDIRALLIDAMPPEALPTCFKPQATVVSASLISPASTPSCLSAASSIDNLTGPLTDLAVGGASNAGDGAAGAERKEGEVAGLDMNISQFLKSLGLEHLRDIFETEQITLDVLADMGHEELKEIGINAYGHRHKLIKGVERLLGGQQGTNPYLTFHCVNQGTILLDLAPEDKEYQSVEEEMQSTIREHRDGGNAGGIFNRYNVIRIQKVVNKKLRERFCHRQKEVSEENHNHHNERMLFHGSPFINAIIHKGFDERHAYIGGMFGAGIYFAENSSKSNQYVYGIGGGTGCPTHKDRSCYICHRQMLFCRVTLGKSFLQFSTMKMAHAPPGHHSVIGRPSVNGLAYAEYVIYRGEQAYPEYLITYQIMKPEAPSQTATAAEQKT
In the case of B2, the binding entry in test [2] is recorded as “no binding”.

B3: PARP5b, endogenous in mouse embryonic fibroblasts (enzyme, UniProt Q3UES3 1-1166)
chain: MSGRRCAGGGAACASAGAEAVEPSARELFEACRNGDVERVKRLVTPEKVNSRDTAGRKSTPLHFAAGFGRKDVVEYLLQNGANVQARDDGGLIPLHNACSFGHAEVVNLLLQHGADPNARDNWNYTPLHEAAIKGKIDVCIVLLQHGAEPTIRNTDGRTALDLADPSAKAVLTGDYKKDELLESARSGNEEKMMALLTPLNVNCHASDGRKSTPLHLAAGYNRVKIVQLLLHHGADVHAKDKGDLVPLHNACSYGHYEVTELLVKHGACVNAMDLWQFTPLHEAASKNRIEVCSLLLSYGADPTLLNCHNKSAIDLAPTAQLKERLSYEFKGHSLLQAAREADVTRIKKHLSLEMVNFKHPQTHETALHCAAASPYPKRKQICELLLRKGANTNEKTKEFLTPLHVASENAHNDVVEVVVKHEAKVNALDSLGQTSLHRAAHCGHLQTCRLLLSYGCDPNIISLQGFTALQMGNENVQQLLQEGASLGHSEADRQLLEAAKAGDVETVKKLCTVQSVNCRDIEGRQSTPLHFAAGYNRVSVVEYLLQHGADVHAKDKGGLVPLHNACSYGHYEVAELLVKHGAVVNVADLWKFTPLHEAAAKGKYEICKLLLQHGADPTKKNRDGNTPLDLVKDGDTDIQDLLRGDAALLDAAKKGCLARVKKLSSPDNVNCRDTQGRHSTPLHLAAGYNNLEVAEYLLQHGADVNAQDKGGLIPLHNAASYGHVDVAALLIKYNACVNATDKWAFTPLHEAAQKGRTQLCALLLAHGADPTLKNQEGQTPLDLVSADDVSALLTAAMPPSALPTCYKPQVLSGVRGPGATADALSSGPSSPSSLSAASSLDNLSGSFSELSAVVSSSAAEGATGLQRKEDSGIDFSITQFIRNLGLEHLMDIFEREQITLDVLVEMGHKELKEIGINAYGHRHKLIKGVERLISGQQGLNPYLTLNNSGSGTILIDLSPDDKEFQSVEEEMQSTVREHRDGGHAGGVFNRYNILKIQKVCNKKLWERYTHRRKEVSEENHNHANERMLFHGSPFVNAIIHKGFDERHAYIGGMFGAGIYFAENSSKSNQYVYGIGGGTGCPIHKDRSCYICHRQLLFCRVTLGKSFLQFSAMKMAHSPPGHHSVTGRPSVNGLALAEYVIYRGEQAYPEYLITYQIVRPEGMVDG
As for B3, the binding result in test [2] is on record as “no binding”.

The values are drawn from paper PMC5026359.
